Source: article PMC9911399, “Two distinct binding modes provide the RNA-binding protein RbFox with extraordinary sequence specificity”
Changes are numbered by the printed parent chain; changes in the protein carry UniProt numbers. The list shows a part of the results.

T1: RBFOX1 RRM RbFoxmut (Fox-RRM*) (Homo sapiens, UniProt Q9NWB1 109-208, R118D;E147R;N151S;E152T)
T1 sequence: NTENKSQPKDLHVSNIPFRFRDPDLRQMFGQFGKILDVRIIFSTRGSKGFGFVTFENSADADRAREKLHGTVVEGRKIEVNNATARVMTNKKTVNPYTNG

B1: UGGUCAU (DNA:RNA)
RNA: GGGAGACCGGAAUUCAGAUUGUCCUGGUCAUUUAAAUCCCGUCGUAGCCACCA
DNA 1: CAATCTGAATTCCGGTCTCCC
DNA 2: TGGTGGCTACGACGGGATT
B2: UAAAAUU (DNA:RNA)
RNA: B1 RNA with G26A, G27A, U28A, C29A, A30U
DNA 1: CAATCTGAATTCCGGTCTCCC
DNA 2: TGGTGGCTACGACGGGATT
B3: CCCAUAG (DNA:RNA)
RNA: B1 RNA with U25C, G26C, G27C, U28A, C29U, U31G
DNA 1: CAATCTGAATTCCGGTCTCCC
DNA 2: TGGTGGCTACGACGGGATT
B4: GCUCCGC (DNA:RNA)
RNA: B1 RNA with U25G, G26C, G27U, U28C, A30G, U31C
DNA 1: CAATCTGAATTCCGGTCTCCC
DNA 2: TGGTGGCTACGACGGGATT
B5: GCAUAAA (DNA:RNA)
RNA: B1 RNA with U25G, G26C, G27A, C29A, U31A
DNA 1: CAATCTGAATTCCGGTCTCCC
DNA 2: TGGTGGCTACGACGGGATT
B6: GCCCCGC (DNA:RNA)
RNA: B1 RNA with U25G, G26C, G27C, U28C, A30G, U31C
DNA 1: CAATCTGAATTCCGGTCTCCC
DNA 2: TGGTGGCTACGACGGGATT
B7: GAGCCCA (DNA:RNA)
RNA: B1 RNA with U25G, G26A, U28C, A30C, U31A
DNA 1: CAATCTGAATTCCGGTCTCCC
DNA 2: TGGTGGCTACGACGGGATT
B8: UUGUGAG (DNA:RNA)
RNA: B1 RNA with G26U, C29G, U31G
DNA 1: CAATCTGAATTCCGGTCTCCC
DNA 2: TGGTGGCTACGACGGGATT
B9: UGGGGGU (DNA:RNA)
RNA: B1 RNA with U28G, C29G, A30G
DNA 1: CAATCTGAATTCCGGTCTCCC
DNA 2: TGGTGGCTACGACGGGATT
B10: AGUUGAU (DNA:RNA)
RNA: B1 RNA with U25A, G27U, C29G
DNA 1: CAATCTGAATTCCGGTCTCCC
DNA 2: TGGTGGCTACGACGGGATT
B11: CCGUACA (DNA:RNA)
RNA: B1 RNA with U25C, G26C, C29A, A30C, U31A
DNA 1: CAATCTGAATTCCGGTCTCCC
DNA 2: TGGTGGCTACGACGGGATT
B12: UAUUGUG (DNA:RNA)
RNA: B1 RNA with G26A, G27U, C29G, A30U, U31G
DNA 1: CAATCTGAATTCCGGTCTCCC
DNA 2: TGGTGGCTACGACGGGATT
B13: GGAUUAU (DNA:RNA)
RNA: B1 RNA with U25G, G27A, C29U
DNA 1: CAATCTGAATTCCGGTCTCCC
DNA 2: TGGTGGCTACGACGGGATT
B14: CGGUCUU (DNA:RNA)
RNA: B1 RNA with U25C, A30U
DNA 1: CAATCTGAATTCCGGTCTCCC
DNA 2: TGGTGGCTACGACGGGATT
B15: ACCCACU (DNA:RNA)
RNA: B1 RNA with U25A, G26C, G27C, U28C, C29A, A30C
DNA 1: CAATCTGAATTCCGGTCTCCC
DNA 2: TGGTGGCTACGACGGGATT
B16: UGACAUA (DNA:RNA)
RNA: B1 RNA with G27A, U28C, C29A, A30U, U31A
DNA 1: CAATCTGAATTCCGGTCTCCC
DNA 2: TGGTGGCTACGACGGGATT
B17: AGAUGUA (DNA:RNA)
RNA: B1 RNA with U25A, G27A, C29G, A30U, U31A
DNA 1: CAATCTGAATTCCGGTCTCCC
DNA 2: TGGTGGCTACGACGGGATT
B18: UGCCUCA (DNA:RNA)
RNA: B1 RNA with G27C, U28C, C29U, A30C, U31A
DNA 1: CAATCTGAATTCCGGTCTCCC
DNA 2: TGGTGGCTACGACGGGATT
B19: UCAACGC (DNA:RNA)
RNA: B1 RNA with G26C, G27A, U28A, A30G, U31C
DNA 1: CAATCTGAATTCCGGTCTCCC
DNA 2: TGGTGGCTACGACGGGATT
B20: UCCAGCC (DNA:RNA)
RNA: B1 RNA with G26C, G27C, U28A, C29G, A30C, U31C
DNA 1: CAATCTGAATTCCGGTCTCCC
DNA 2: TGGTGGCTACGACGGGATT
B21: CGAGUCU (DNA:RNA)
RNA: B1 RNA with U25C, G27A, U28G, C29U, A30C
DNA 1: CAATCTGAATTCCGGTCTCCC
DNA 2: TGGTGGCTACGACGGGATT
B22: GGGUGAA (DNA:RNA)
RNA: B1 RNA with U25G, C29G, U31A
DNA 1: CAATCTGAATTCCGGTCTCCC
DNA 2: TGGTGGCTACGACGGGATT
B23: GACCAUC (DNA:RNA)
RNA: GGGAGACCGGAAUUCAGAUUGUCCGACCAUCUUAAAUCCCGUCGUAGCCACCA
DNA 1: CAATCTGAATTCCGGTCTCCC
DNA 2: TGGTGGCTACGACGGGATT
B24: UGAAUCA (DNA:RNA)
RNA: B1 RNA with G27A, U28A, C29U, A30C, U31A
DNA 1: CAATCTGAATTCCGGTCTCCC
DNA 2: TGGTGGCTACGACGGGATT
B25: UAACUGU (DNA:RNA)
RNA: B23 RNA with G25U, C27A, A29U, U30G, C31U
DNA 1: CAATCTGAATTCCGGTCTCCC
DNA 2: TGGTGGCTACGACGGGATT
B26: ACAGAAA (DNA:RNA)
RNA: B23 RNA with G25A, A26C, C27A, C28G, U30A, C31A
DNA 1: CAATCTGAATTCCGGTCTCCC
DNA 2: TGGTGGCTACGACGGGATT
B27: GCAGUCG (DNA:RNA)
RNA: B23 RNA with A26C, C27A, C28G, A29U, U30C, C31G
DNA 1: CAATCTGAATTCCGGTCTCCC
DNA 2: TGGTGGCTACGACGGGATT
B28: UGACCCU (DNA:RNA)
RNA: B1 RNA with G27A, U28C, A30C
DNA 1: CAATCTGAATTCCGGTCTCCC
DNA 2: TGGTGGCTACGACGGGATT
B29: CCCGGAG (DNA:RNA)
RNA: B23 RNA with G25C, A26C, C28G, A29G, U30A, C31G
DNA 1: CAATCTGAATTCCGGTCTCCC
DNA 2: TGGTGGCTACGACGGGATT
B30: GGGUUCU (DNA:RNA)
RNA: B1 RNA with U25G, C29U, A30C
DNA 1: CAATCTGAATTCCGGTCTCCC
DNA 2: TGGTGGCTACGACGGGATT
B31: CUAAGAC (DNA:RNA)
RNA: B23 RNA with G25C, A26U, C27A, C28A, A29G, U30A
DNA 1: CAATCTGAATTCCGGTCTCCC
DNA 2: TGGTGGCTACGACGGGATT

Target: T1, RBFOX1 RRM RbFoxmut (Fox-RRM*)
Assay: EMSA; HiTS-Eq, 1 nM pool, 10 min; buffer printed only for the single-RNA assays: 10 mM Tris pH 7.5, 150 mM NaCl, 3.4 mM EDTA, 0.001% NP-40, 30 C
Conditions: tags: His6 N-terminal (pET28a); label: 5' 32P
Summary of the method: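 Purified wild-type or mutant RbFox RRM at increasing concentrations was equilibrated with 1 nM of 5′-radiolabelled RNA carrying 7 randomized nucleotides for 10 min in 50 µL. Unbound RNA was separated by 8% native PAGE and sequenced. Relative association constants came from read-count changes of each RNA species compared with the control reaction, normalised to the cognate motif.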

| Binder | binding signal |
| --- | --- |
| B1 | 0.0965 KA relative to UGCAUGU |
| B2 | 0.065 KA relative to UGCAUGU |
| B3 | 0.141 KA relative to UGCAUGU |
| B4 | 0.0718 KA relative to UGCAUGU |
| B5 | 0.144 KA relative to UGCAUGU |
| B6 | 0.081 KA relative to UGCAUGU |
| B7 | 0.0512 KA relative to UGCAUGU |
| B8 | 0.139 KA relative to UGCAUGU |
| B9 | 0.12 KA relative to UGCAUGU |
| B10 | 0.0988 KA relative to UGCAUGU |
| B11 | 0.0799 KA relative to UGCAUGU |
| B12 | 0.142 KA relative to UGCAUGU |
| B13 | 0.0977 KA relative to UGCAUGU |
| B14 | 0.0689 KA relative to UGCAUGU |
| B15 | 0.1 KA relative to UGCAUGU |
| B16 | 0.123 KA relative to UGCAUGU |

| Binder | binding signal |
| --- | --- |
| B17 | 0.212 KA relative to UGCAUGU |
| B18 | 0.118 KA relative to UGCAUGU |
| B19 | 0.0748 KA relative to UGCAUGU |
| B20 | 0.0757 KA relative to UGCAUGU |
| B21 | 0.0646 KA relative to UGCAUGU |
| B22 | 0.115 KA relative to UGCAUGU |
| B23 | 0.0446 KA relative to UGCAUGU |
| B24 | 0.228 KA relative to UGCAUGU |
| B25 | 0.0701 KA relative to UGCAUGU |
| B26 | 0.097 KA relative to UGCAUGU |
| B27 | 0.0875 KA relative to UGCAUGU |
| B28 | 0.0476 KA relative to UGCAUGU |
| B29 | 0.0933 KA relative to UGCAUGU |
| B30 | 0.14 KA relative to UGCAUGU |
| B31 | 0.0687 KA relative to UGCAUGU |
